Data from the RNAGym collection of RNA variant scans (doi:10.1093/nar/gkz1192).
Read counts are not given, so values of variants with three or more changes are uncertain.

B1: CPEB3 Ribozyme (parent)
chain: UAACAGGGGGCCACAGCAGAAGCGUUCACGUCGCAGCCCCUGUCAGAUUCUGGUGAAUCUGCGAAUUCUGCUGUAUAUCUC

Variants of: B1
Experiment: self-cleavage, relative activity (ratio to wild type); higher = more cleavage; in vitro, sequencing
Method in brief: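 For each CPEB3 ribozyme variant, relative activity is its cleaved/total read fraction divided by the unmutated ribozyme's. Barcoded error-prone PCR libraries were transcribed by T7 RNA polymerase (5 hours, 37°C) and held in DNase I for 15 min before an EDTA stop, with cleavage occurring throughout. Template-switching reverse transcription and Illumina sequencing were used to read the RNAs. A 5-read minimum applied, and results are the mean of three batches.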
Variant G8A U25C G55A U80A has a self-cleavage of 0.08.
G8U U26C A35U C40U gave a self-cleavage of 0.05.
In the case of G8U G10A A20G A56U U78C, the self-cleavage is reported as 0.05.
Variant G8A G36A A64G U72G has a self-cleavage of 0.04.
For G8A C12U C44U, the self-cleavage was 0.07.
With G8C U51A A64G the self-cleavage was 0.17.
Work on G9A A18G A20U C29U A35G U69A yielded a self-cleavage of 0.06.
For G8A U26A A56U U72A U78C, the self-cleavage was 0.04.
Variant G9C A20U U72C U80C has a self-cleavage of 0.04.
Variant G9C A18G G30C A45U C79U has a self-cleavage of 0.03.
Work on G9A A47G U76A yielded a self-cleavage of 0.14.
For G9A A13G G70A, the self-cleavage was 0.08.
G9A C11U U31C A35G A47G U51A U66C showed a self-cleavage of 0.04.
In the case of G9A U31C A64U U72A, the self-cleavage is reported as 0.1.
Variant G8A G9U U80C has a self-cleavage of 0.42.
Work on G8C A18C U26C yielded a self-cleavage of 0.17.
Variant G8A U54C A56G A65G U74C has a self-cleavage of 0.08.
G8C A28G A57C showed a self-cleavage of 0.22.
In the case of G9A A35G A56U A65G A75G, the self-cleavage is reported as 0.06.
G9A C17U U25A U31C U49C gave a self-cleavage of 0.06.
Work on G9A A13G U72A yielded a self-cleavage of 0.4.
Work on G9A U26C G42A U51C U54C A65U yielded a self-cleavage of 0.05.
Work on G8A A45U U60A yielded a self-cleavage of 0.09.
G8U A35G U48C U58A U78C gave a self-cleavage of 0.11.
In the case of G9U A20U U43C, the self-cleavage is reported as 0.06.
Work on G8A A35G A56G U72C yielded a self-cleavage of 0.63.
With G8A U31C A65U U69C U72C the self-cleavage was 0.06.
With G8U U43C U58A the self-cleavage was 0.4.
Work on G8A A21G A28G C32U U49C A57U yielded a self-cleavage of 0.03.
G8A C12G A20G U54C U66C showed a self-cleavage of 0.05.
Variant G9A U25C G42C U67A has a self-cleavage of 0.09.
G8A C23U U48C U49C A57G U67C U76C gave a self-cleavage of 0.04.
With G8A A56G U80A the self-cleavage was 0.28.
In the case of G9A A13G C14U A20G U41C U60G, the self-cleavage is reported as 0.04.
G9A C34U U60A A64G gave a self-cleavage of 0.12.
For G9A U31C C40U U51A A56G A64U U72A, the self-cleavage was 0.03.
Work on G8A A35G U41A A64G yielded a self-cleavage of 0.06.
G9A U26A A28G G55U A57G U66C U72A gave a self-cleavage of 0.04.
G9A A18U A75U showed a self-cleavage of 0.03.
G8A U25A U26C U41A A57G U69C showed a self-cleavage of 0.05.
For G9A U26C A47U U54A A56G, the self-cleavage was 0.05.
Variant G9A U25C U31C A35G A64G C79A has a self-cleavage of 0.05.
G8A A18G U58C U72A showed a self-cleavage of 0.06.
With G9U A13G U41A U51A the self-cleavage was 0.06.
G9A A20U C27U U49C gave a self-cleavage of 0.25.
G8U U31C A35G C39U G53A A65U showed a self-cleavage of 0.04.
With G8A C14G U51C U66C A75U U78A the self-cleavage was 0.05.
For G8U C38A A65U, the self-cleavage was 0.11.
With G8U U49C C62G the self-cleavage was 0.19.
For G9A A13G U26C A47U A56G U69C A77U, the self-cleavage was 0.14.
In the case of G8U A21G C27A A64U U69C U76C, the self-cleavage is reported as 0.03.
For G9A A13U A65G, the self-cleavage was 0.1.
Work on G9A A15U G33A A56U U76C yielded a self-cleavage of 0.05.
Variant G8A C34U A64G has a self-cleavage of 0.04.
In the case of G9A A15G A45G, the self-cleavage is reported as 0.07.
With G8A U51A U58C the self-cleavage was 0.28.
In the case of G9A A45U U54A A56G, the self-cleavage is reported as 0.08.
In the case of G9A C27A A35G A45G U69C, the self-cleavage is reported as 0.17.
For G9A A35U A56G A57G, the self-cleavage was 0.16.
Work on G8U U43C U78C yielded a self-cleavage of 0.1.
Work on G8U A13G U41A A45C U69A yielded a self-cleavage of 0.11.
With G9A U51C U54G A57G U72C the self-cleavage was 0.07.
With G9A U25C U43C U74A A77G the self-cleavage was 0.47.
For G9A C38A U58C, the self-cleavage was 0.04.
For G8U A35U A45C, the self-cleavage was 0.13.
With G8U C11U A28U U43C G53C A57G U80A the self-cleavage was 0.04.
With G9A A13G G53A U58A the self-cleavage was 0.04.
For G8U U26A U51C, the self-cleavage was 0.14.
In the case of G9A U26C A28U U67C, the self-cleavage is reported as 0.03.
For G8A U31G A64G, the self-cleavage was 0.06.
Work on G9U A13U A20G A28U A45U A56G U60G yielded a self-cleavage of 0.05.
With G9A G30A U54A U74A the self-cleavage was 0.44.
G8U A18G C34A U43C G70A showed a self-cleavage of 0.13.
For G9A A15G G53U A57G, the self-cleavage was 0.04.
In the case of G9A U26C A45G U58C A64U A65U A75U, the self-cleavage is reported as 0.04.
Variant G8C U25C A35U has a self-cleavage of 0.06.
G9A A13G A35G A64G gave a self-cleavage of 0.07.
Work on G9U A13G G24U C29A A35G U69C yielded a self-cleavage of 0.06.
Variant G8A A28G U49C has a self-cleavage of 0.25.
For G8C A13U G33U A57U U69C, the self-cleavage was 0.08.
Work on G9A C29U A35C U41C A45C G70U yielded a self-cleavage of 0.03.
G9A A20G A35U U43C U54A U69A showed a self-cleavage of 0.07.
Variant G9A U48C A56G A57U has a self-cleavage of 0.09.
In the case of G8U A15U U41A U60A C68U, the self-cleavage is reported as 0.04.
